Our source for the MFI values is patent US20180222958A1 (ONCOMED PHARMACEUTICALS, published 2018).

The target in assay [1] is T1, human LTβR ecd, CD4TM and GFP (human, UniProt P36941 31-227).
T1 construct: extracellular domain; also called hLTβR; hLThR-GFP; not shown: CD4 transmembrane domain and GFP fused after the extracellular domain
In words: flow cytometry on HEK 293T cells transiently transfected with human LTβR ecd-CD4TM-GFP (row 'hLTBR GFP'); '0.5 ug/ml' printed at the upper left of the figure; APC-conjugated Fc secondary. As to the method:
(§1) To test the binding of the different c-terminal human lymphotoxin heterotrimer constructs to human and mouse LTβR, HEK 293T cells were transiently transfected with cDNA expression vectors encoding cDNA for human or mouse LTβR ecd, CD4TM and GFP. Cells were then incubated with the various human lymphotoxin constructs 363F2, 363F3, or 363F4, washed and stained with APC-conjugated Fc secondary antibody. Mouse (deglycosylated) IgG1 Fc-mouse lymphotoxin-αββ heterotrimer fusion protein 363F1 was also tested. Binding of the lymphotoxin constructs was then assessed by flow cytometry using a Canto II FACS instrument (BD Biosciences) and analyzed using FlowJo software.

For assay [2], the target named is T2, membrane-bound extracellular domain of mouse LTβR (mLTβR-CD4TM-GFP) (mouse, UniProt P50284 31-223).
T2 construct: extracellular domain; also called mouse LTβR ecd, CD4TM and GFP; mLThR-GFP; not shown: CD4 transmembrane domain and GFP fused after the extracellular domain
The assay is described as follows: flow cytometry on HEK 293T cells transiently transfected with mouse LTβR ecd-CD4TM-GFP (row 'mLTBR GFP'); '0.5 ug/ml' printed at the upper left of the figure; APC-conjugated Fc secondary. As to the method: as §1
(Flow cytometry measures light scatter and fluorescence of single cells or particles in a stream.)

T2 sequence (P50284 31-223): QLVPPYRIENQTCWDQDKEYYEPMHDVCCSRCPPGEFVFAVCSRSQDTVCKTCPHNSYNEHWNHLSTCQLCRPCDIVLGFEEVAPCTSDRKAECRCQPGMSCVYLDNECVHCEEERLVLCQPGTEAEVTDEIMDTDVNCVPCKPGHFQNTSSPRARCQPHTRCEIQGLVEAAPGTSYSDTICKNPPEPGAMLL
T1 sequence (P36941 31-227): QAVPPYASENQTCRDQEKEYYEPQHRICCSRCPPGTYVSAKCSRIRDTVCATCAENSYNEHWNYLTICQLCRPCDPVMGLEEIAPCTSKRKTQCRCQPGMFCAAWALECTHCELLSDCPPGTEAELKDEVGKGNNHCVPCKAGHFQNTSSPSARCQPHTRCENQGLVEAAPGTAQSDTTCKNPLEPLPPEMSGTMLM

B1: 363F2 hFc-hLTαββ (Fc fusion)
chain: [omitted - human IgG1 Fc with changes]KPAAHLIGDPSKQNSLLWRANTDRAFLQDGFSLSNNSLLVPTSGIYFVYSQVVFSGKAYSPKATSSPLYLAHEVQLFSSQYPFHVPLLSSQKMVYPGLQEPWLHSMYHGAAFQLTQGDQLSTHTDGIPHLVLSPSTVFFGAFALLSPGLPAAHLIGAPLKGQGLGWETTKEQAFLTSGTQFSDAEGLALPQDGLYYLYCLVGYRGRAPPGGGDPQGRSVTLRSSLYRAGGAYGPGTPELLLEGAETVTPVLDPARRQGYGPLWYTSVGFGGLVQLRRGERVYVNISHPDMVDFARGKTFFGAVMVGLSPGLPAAHLIGAPLKGQGLGWETTKEQAFLTSGTQFSDAEGLALPQDGLYYLYCLVGYRGRAPPGGGDPQGRSVTLRSSLYRAGGAYGPGTPELLLEGAETVTPVLDPARRQGYGPLWYTSVGFGGLVQLRRGERVYVNISHPDMVDFARGKTFFGAVMVG
In the case of B1, the MFI in assay [1] was found to be 3680; in assay [2] it was 8100.

B2: 363F3 hFc-hLTβαβ (Fc fusion)
chain: [omitted - human IgG1 Fc with changes]LSPGLPAAHLIGAPLKGQGLGWETTKEQAFLTSGTQFSDAEGLALPQDGLYYLYCLVGYRGRAPPGGGDPQGRSVTLRSSLYRAGGAYGPGTPELLLEGAETVTPVLDPARRQGYGPLWYTSVGFGGLVQLRRGERVYVNISHPDMVDFARGKTFFGAVMVGKPAAHLIGDPSKQNSLLWRANTDRAFLQDGFSLSNNSLLVPTSGIYFVYSQVVFSGKAYSPKATSSPLYLAHEVQLFSSQYPFHVPLLSSQKMVYPGLQEPWLHSMYHGAAFQLTQGDQLSTHTDGIPHLVLSPSTVFFGAFALLSPGLPAAHLIGAPLKGQGLGWETTKEQAFLTSGTQFSDAEGLALPQDGLYYLYCLVGYRGRAPPGGGDPQGRSVTLRSSLYRAGGAYGPGTPELLLEGAETVTPVLDPARRQGYGPLWYTSVGFGGLVQLRRGERVYVNISHPDMVDFARGKTFFGAVMVG
Take B2: the results for the MFI in assay [1] and in assay [2] were 3980 and 8940, respectively.

B3: 363F4 hFc-hLTββα (Fc fusion)
chain: [omitted - human IgG1 Fc with changes]LSPGLPAAHLIGAPLKGQGLGWETTKEQAFLTSGTQFSDAEGLALPQDGLYYLYCLVGYRGRAPPGGGDPQGRSVTLRSSLYRAGGAYGPGTPELLLEGAETVTPVLDPARRQGYGPLWYTSVGFGGLVQLRRGERVYVNISHPDMVDFARGKTFFGAVMVGLSPGLPAAHLIGAPLKGQGLGWETTKEQAFLTSGTQFSDAEGLALPQDGLYYLYCLVGYRGRAPPGGGDPQGRSVTLRSSLYRAGGAYGPGTPELLLEGAETVTPVLDPARRQGYGPLWYTSVGFGGLVQLRRGERVYVNISHPDMVDFARGKTFFGAVMVGKPAAHLIGDPSKQNSLLWRANTDRAFLQDGFSLSNNSLLVPTSGIYFVYSQVVFSGKAYSPKATSSPLYLAHEVQLFSSQYPFHVPLLSSQKMVYPGLQEPWLHSMYHGAAFQLTQGDQLSTHTDGIPHLVLSPSTVFFGAFAL
For the molecule B3, the MFI is 4770 in assay [1] and 9060 in assay [2].
